Records with an inconclusive call do not appear. A number of entries come with more than one value. Only these are listed. The source may hold further records. The values listed for one entry are repeated measurements in other runs, samples, wells, individuals or studies.
System: BDF1 mice, colon carcinoma 38 sc, T/C %
Assay: NCI In Vivo Anticancer Drug Screen. Data for tumor model Colon Carcinoma 38 (subcutaneous) in B6D2F1 (BDF1) mice
Conditions: endpoint: median tumor weight (est.), schedule: Q07DX002 (ip), higher = larger tumour
Procedure, shortened: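 Ratio of survival or tumor size, compound-treated animals relative to vehicle controls, in tumor-bearing mice.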

OCC1OC(n2cnc3c(Cl)ncnc32)C(O)C1O (stereo not given)
T/C (dose: 12.5 mg/kg/injection, vehicle: saline): 102 % of control and 150 % of control | T/C (dose: 25.0 mg/kg/injection, vehicle: saline): 33 % of control and 153 % of control | T/C (dose: 50.0 mg/kg/injection, vehicle: saline): 33 % of control and 150 % of control | T/C (dose: 400.0 mg/kg/injection, vehicle: saline): 58 % of control, 170 % of control, 214 % of control

CN(C)CCN1C(=O)c2cccc3cc(N)cc(c23)C1=O
T/C (dose: 32.0 mg/kg/injection, vehicle: saline with Tween-80): 52 % of control and 80 % of control

Source: PubChem BioAssay AID212 (DTP/NCI, 2004)
